No constants are given. Whether binding was seen depends on the method and setting. For some assays here: In cells and extracts the contact can be indirect. Some results given as binding are weak or reduced against the parent protein; the word gives no strength. For some assays here: Sequences can lack the tags named with a protein.
T1: FLAG-CDK5RAP2 (706–1241) (human) (UniProt Q96SN8)
T1 sequence: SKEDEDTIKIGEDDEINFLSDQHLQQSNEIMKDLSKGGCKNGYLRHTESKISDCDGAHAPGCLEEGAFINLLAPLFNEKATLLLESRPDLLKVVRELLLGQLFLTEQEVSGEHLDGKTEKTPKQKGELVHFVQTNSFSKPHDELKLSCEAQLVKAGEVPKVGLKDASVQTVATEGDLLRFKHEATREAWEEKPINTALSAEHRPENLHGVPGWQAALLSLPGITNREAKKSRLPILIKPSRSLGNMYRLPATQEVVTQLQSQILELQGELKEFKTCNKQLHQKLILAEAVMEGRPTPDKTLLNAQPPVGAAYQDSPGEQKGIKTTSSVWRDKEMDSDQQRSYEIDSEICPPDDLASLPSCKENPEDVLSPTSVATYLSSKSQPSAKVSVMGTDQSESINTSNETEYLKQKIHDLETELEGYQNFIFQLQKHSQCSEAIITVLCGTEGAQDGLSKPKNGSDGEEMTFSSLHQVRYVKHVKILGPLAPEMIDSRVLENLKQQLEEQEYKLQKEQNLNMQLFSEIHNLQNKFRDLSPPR

Protein sequences, listed by entry. Tags and fused reporters are not part of them.
UniProt P63167: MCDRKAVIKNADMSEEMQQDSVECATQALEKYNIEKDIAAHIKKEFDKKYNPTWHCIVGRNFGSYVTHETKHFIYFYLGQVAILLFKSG

T2: FLAG-CDK5RAP2 (706–925) (human) (UniProt Q96SN8)
T2 sequence: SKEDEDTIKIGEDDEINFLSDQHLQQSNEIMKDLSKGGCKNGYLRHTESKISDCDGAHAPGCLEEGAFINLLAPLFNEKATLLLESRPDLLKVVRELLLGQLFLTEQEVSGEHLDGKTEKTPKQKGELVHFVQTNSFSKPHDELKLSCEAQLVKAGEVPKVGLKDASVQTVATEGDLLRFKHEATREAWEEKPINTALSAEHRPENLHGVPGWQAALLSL


Tests used:
[1] = molecular target: GFP-CDK5RAP2 (Q874A/T875A) (human) (UniProt Q96SN8); test: co-IP; anti-GFP immunoprecipitation from HEK293T cells co-expressing wild-type or mutant GFP-CDK5RAP2 with Myc-DLC8; blots with anti-Myc and anti-GFP
[2] = molecular target: GFP-CDK5RAP2 wild-type (human) (UniProt Q96SN8); test: as above
[3] = molecular target: T1, FLAG-CDK5RAP2 (706–1241) (human); test: co-IP; anti-FLAG immunoprecipitation from HEK293T cells co-transfected with Myc-DLC8 and FLAG-tagged CDK5RAP2 fragments; blots with anti-FLAG and anti-Myc
[4] = molecular target: T2, FLAG-CDK5RAP2 (706–925) (human); test: as above
GST-DLC8 = GST-DLC8 (UniProt P63167); test: pull-down; 5 μg recombinant proteins mixed in 200 μl binding buffer (25 mM Tris-HCl pH 7.4, 0.5% NP40, 100 mM NaCl, 5 mM MgCl2, 1 mg/ml BSA), 4°C, 1 h; GST proteins retrieved with GSH-Sepharose; anti-His6 blot; both purified

Molecule	binding [1]	binding [2]	binding [3]	binding [4]	binding (GST-DLC8)
Myc-DLC8 (from UniProt P63167 1-89)	no binding	binds	binds	binds	
His6-CDK5RAP2 (706–925) (domain or fragment, UniProt Q96SN8 706-925) SKEDEDTIKIGEDDEINFLSDQHLQQSNEIMKDLSKGGCKNGYLRHTESKISDCDGAHAPGCLEEGAFINLLAPLFNEKATLLLESRPDLLKVVRELLLGQLFLTEQEVSGEHLDGKTEKTPKQKGELVHFVQTNSFSKPHDELKLSCEAQLVKAGEVPKVGLKDASVQTVATEGDLLRFKHEATREAWEEKPINTALSAEHRPENLHGVPGWQAALLSL					binds
